According to the supplement of paper PMC10126150:
Sequences with one replicate were seen in a single cluster, so their values are uncertain.

System: ATP
Assay: switch fluorescence ratio, 500 uM ATP over buffer (Cy3 cluster intensity, sum of 5 cycles each) (fold (ratio)); higher = stronger signal-on switching upon ATP binding; sequences stand for … in TCGTCGGCAGCGTCAGATGTGTATAAGAGACAGTTTTTTTTTTTTTTTTTTTTTTTTT…TC
Settings: aptamer strand: ATP DNA aptamer (quencher-CACCTGGGGGAGTATTGCGGAGGAAGG + anchor), 100 nM annealed; ATP concentration: 500 uM; one replicate
Procedure, shortened: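 Values give the fluorescence ratio for each switch-domain sequence, averaged from per-cluster ratios of summed target-cycle to summed buffer-cycle Cy3 intensity. The Cy3-labelled switching-strand clusters sat on a modified Illumina MiSeq flow-cell, were annealed to 100 nM quencher-labelled ATP aptamer, and were imaged in selection buffer, then after 15 min with 500 uM ATP at 22 °C. Five cycles ran with NaOH stripping and re-annealing between them, and clusters outside 100-1000 RFU were excluded.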
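Further: ATP exposure 15 min at 22 °C before imaging.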

Sequence	switch fluorescence ratio
CGATAATGCC	1.04
CAACATATGA	1.02
GTTGGGATTT	0.952
GGTCAATGCA	0.997
AGGCAGTCCC	0.987
CGAGGACGG	1.04
GAAACGTCTG	1.05
CCGACGATGG	2.92
GGGAACTAC	1.03
TTATAAATGT	0.973
CTATAAGCGT	0.959
TGATACTATA	0.999
CCAAGGTAGG	0.996
ACCGGTCTAG	0.94
ATCCTTCTTA	1.02
CAACGCGGTA	1.31
TGTGCTAATA	0.965
TGCAAGGAGT	0.997
TTTTAATAGA	0.992
CGTAAGATTC	0.996
GCGGACATCC	1.01
GACATGTTCA	1.04
GCTCTATCCC	1.05
GCTATGAATT	0.957
ATGTAGACGT	1
AATCGATGCA	0.964

Sequence	switch fluorescence ratio
CGAGAACATA	0.982
AGGTGCCCGG	0.997
CTAGGCTCGG	0.986
AACGAGGGAA	1.03
ACAGTATGTA	0.964
AATTAAAGAG	0.988
GACGACCCTT	1.43
TGGTCCAACC	1.04
CGAGCAGAGA	1.13
CTTAGTCTGC	1.01
AGTGTACTGT	1.05
TACATGATGT	0.978
AAGACTGGTG	0.97
TTAGGCGCC	1
GGACTGGGGC	1.01
GCCCGCTTGG	1.05
AATCTGGAA	1.01
GGACCGCCCG	1.02
TTTGCCTCCA	1
AGCTACGTGC	0.991
CGCGCGATGT	0.984
GATGGTTAAG	1.03
TTTACAGCTA	0.998
GTGATTAGAC	0.936
AGCCCGTAAT	1.3
AAAACTTGGC	1.03

Sequence	switch fluorescence ratio
CTGTTGACAC	0.978
GCATTAAGG	1.02
AAGAGACAGC	1.09
GTGGTTTCCT	1.02
TTTAACACAG	1.04
CAGTGTATAT	0.985
CACTTATCTC	1.01
CCTTACCACG	1.29
GCCGCGCCAA	1.03
CGTTCCTATT	0.978
TTCATAGAGC	1.06
GTAGTCGCTG	0.995
TTTGGCCCCC	1.08
GAGTGCATTC	1
ACGTATGTG	1.02
ACTTTTATTT	0.961
GGGTTAGGCG	0.979
AGCGTCATGT	0.998
ACACAATTTC	1.06
CCGGTATCTT	0.976
ACTATATATT	1.06
CATTACTGGG	0.961
ATTTGATTCC	1.06
AGTTGTTACC	1
ATAATTCACT	1
TTAGACAACG	0.947

Sequence	switch fluorescence ratio
GATACAGCCC	1.06
ACCATAGCAT	1.41
TGGAGGTATG	1
GTGTAAATGT	0.98
CAACGTGCAT	1.03
ATTTGTCTGC	0.967
CCAGCAGGTT	1.26
TTGCTGTAT	0.998
CCCACAGTT	2.46
ATGGGAGCTC	1.02
GAGGACAGGA	0.997
GCTCAATTAG	1.02
CAGTGACGCG	1.12
ACAGGCTTTC	1.06
CTGTTATCG	0.966
AAGTTTCGAC	0.998
GAAATGAGGA	1.06
TGGCTAGACG	0.915
ACTCAGTACC	1.1
TGCTGCGCAG	0.996
TGGAGAGGTT	1.03
CTTGTCCATT	1.01
ATGTGCGTG	0.958
CCGGAATGTT	1.14
GTCGGAGATT	1.02
ATGACACCCA	1.18

Sequence	switch fluorescence ratio
CTCTTGATAA	0.965
TTAAGGGTGA	0.993
AATTCGTTT	0.973
GGGGGCATAG	1.01
TAATTTTGCT	0.944
GGTATATGTA	0.994
AAGTTTTGAA	0.992
TTTGGACGAA	0.965
CCCGGACATT	0.987
ACGGACGGAC	1.36
ACAAGCGGCC	1.05
CGGGTAGATC	1.05
TTAACTTGTT	1.02
GGGATACTGG	1.02
TCATGTCTCA	1.04
ACGGCTTAAC	1.08
TAAGTTTTCG	0.964
CCACACAGGG	1.5
TCTGCCTCAG	1.07
GCGCTATTGG	1.08
ACTTGTAGCG	0.988
CTTTAGTGTC	0.933
GCCATTTTAT	0.969
AAGAATGGCT	1.02
AAGGCTCGTG	0.996
AATGTTCGGC	1.11

Sequence	switch fluorescence ratio
GGTCCTCAGA	1.01
CTATTGAGGT	0.952
ACGCATTAGG	1.06
AGCTTATCGC	1.17
AGCGCAAGTG	0.975
CGAAGGTTGA	0.969
TCATCCTTGA	1.01
CACCATAAGT	1.03
AGAAGAAAAC	0.906
CACAACAAGG	1.02
GATCAAGTTT	0.984
GATGGAGCCG	1.01
AACGCCGTGG	1.02
AGGTGGACTA	0.939
AAGTTGGTG	0.962
GGGGTCGTAC	0.998
TTGGGACCCC	1.57
TACCTGCTCC	1.42
CGACTTAAGA	0.983
CGTGAGCTTT	1.03
GTTAGGTACT	1.04
TTAGGTTGG	0.974
GCGTAGAATA	0.98
GATTCCCTG	0.99
CCCTGTGAAT	0.99
ACGGATCCGT	0.944

Sequence	switch fluorescence ratio
GCGTTAAAGG	0.983
CTAAGCGCCA	1.02
GATGTGAGCG	1.02
TGCCGGCGGC	1.03
GGCAATCAAT	1.02
CAAAACCATC	1.12
TAGAGTCAGG	0.984
CCTAGAGCTG	1.12
GCAAATTT	1.02
GAGGCGCCAA	1.02
GAGTATTTCA	1.04
AATGTGT	0.961
CGGTTTGATA	0.989
GGCCATGATT	1.01
CTATACAACA	0.994
TACCTTGCTT	1.09
CTCCACAGCC	3.72
GAGTCTTCAA	1.03
CCGCCGAGGG	1.53
GGCCATCCAA	0.976
CTTGTGAGAG	1.02
CCGCGGTAGC	1.98
ATGCATTAAA	1.03
CCCACACGGC	1.19
ACGTTGCGTC	0.982
GGTTGCTGA	0.991

Sequence	switch fluorescence ratio
AAGGTCATAC	1.1
TGGTAACACA	1.06
AACACGGGAC	1.44
GATGATGACA	1
CGTCCCATTA	1.54
GTGGACCGTT	1.03
GTTTCCGTAC	1.04
TAGCACTAAT	1.03
GGGAGCAAGT	1.05
GGTCCTAAGA	1.01
AGTGATGGGC	1.01
TGAAGTGTCG	0.886
GGCCTTGGTC	0.955
TTCTGTCCGG	1.01
AATTAGGGAC	1.46
TATTCTATTG	0.959
GCCATAACGG	1.03
ACTGTGTTTC	0.978
GCACATGGCG	0.985
